# Read counts are not given, so values of variants with three or more changes are uncertain.
# B1: CPEB3 Ribozyme (parent)
# chain: UAACAGGGGGCCACAGCAGAAGCGUUCACGUCGCAGCCCCUGUCAGAUUCUGGUGAAUCUGCGAAUUCUGCUGUAUAUCUC
# Variants of: B1
# Experiment: self-cleavage, relative activity (ratio to wild type); higher = more cleavage; in vitro, sequencing
# How it was run: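 For each CPEB3 ribozyme variant, relative activity is its cleaved/total read fraction divided by the unmutated ribozyme's. Barcoded error-prone PCR libraries were transcribed by T7 RNA polymerase (5 hours, 37°C) and held in DNase I for 15 min before an EDTA stop, with cleavage occurring throughout. Template-switching reverse transcription and Illumina sequencing were used to read the RNAs. A 5-read minimum applied, and results are the mean of three batches.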
row,Variant,self-cleavage
1,C12U G19C G33A G42A U43A C44U A56U,0.05
2,C12G U43A C81A,1.22
3,C12U A45U U78A,1.08
4,C12U A13U U31A,1.09
5,C12U A18U U41G A56G,0.29
6,C12U U26C A75G,0.95
7,C12G A20G C32A U41A U60C,0.05
8,C12U A13G A56U,0.25
9,C12G U51G U80A,0.86
10,C12U C40U U48C U60A,0.23
11,C12G A20G U31A U54A U66C,0.1
12,C12U C23G G33C C62A,0.21
13,C12U A15U A18G U26C U41C U49C A64G,0.04
14,C12U A18G A20G G24A U25C U60C,0.03
15,C12U A15U A21U A35U A56G A64G U72A,0.22
16,C12U A15U C39U U69C,0.22
17,C12U U48C U72A,0.56
18,C12U G24U A28G G33A,0.05
19,C12U U31C G53A U72C,1.23
20,C12U C14U U43C A56G,1.05
21,C12U C39U U51A G73A,1.33
22,C12U U26C C39U,0.54
23,C12G A18U A47C U54C,0.13
24,C12U C32U U49C U51C G70A A75G,0.06

row,Variant,self-cleavage
1,C12G U41C A75G U78C,0.9
2,C12U C23A U54G A77U U78C,0.15
3,C12U A13U U25C A64G U74C U78C,0.15
4,C12U C27U G30C,0.22
5,C12U A20G A64U A65U,0.1
6,C12U A20G A35G U60A U66C G70A,0.2
7,C12U A20U A56G,0.39
8,C12G U25C A28G C32A U41G U51A,0.06
9,C12U A15G A56U U80C,0.46
10,C12U A13G U31A G46C U60A U69A,0.09
11,C12U A20G U58C,0.61
12,C12U A21G G22A A56U A57G,0.12
13,C12U A15C A57G,1.14
14,C12U U31G C34U,0.1
15,C12U G30A U31C A35G A45U,0.1
16,C12U A15U G24A C29U A35G U72C G73A,0.05
17,C12U A13U A21G U51C A56U A57G C62U,0.28
18,C12G A20G C39A,0.06
19,C12U A13G U41C U72C,0.43
20,C12U A56G U67G C68U U69C,0.22
21,C12U A15G A20G U72C A77G,0.79
22,C12U U41C A47U U72C A75G,0.34
23,C12U G30A A47G A77U,0.19
24,C12G A45G U80C,0.24

row,Variant,self-cleavage
1,C12U C32U A35U U58C U66C U69C,0.05
2,C12U A15G U49C A56G U60C U72C,0.71
3,C12G U25A U26C C29G U74A,0.04
4,C12U A15G G33A A45G U74C U80C,0.08
5,C12U G52A A56U U60C,0.73
6,C12U G16A U60A U66C,0.12
7,C12G C17G A64G,0.19
8,C12G A18C U25C U26C U43C C68G,0
9,C12U C14U A57G C68A U69C U74C,0.69
10,C12U A45U U60A,1.24
11,C12U A13G A35C A56G U69A U78G C81U,0.11
12,C12U A65U U74C A75G,0.85
13,C12U A15U U54C U78C,1.09
14,C12U A13U A21U C38U A57C U66C U69C,0.05
15,C12G U49C G63A U67C,0.06
16,C12U U26C U72C U74C,1.16
17,C12U U49C U51C U60C A64U U72C,0.13
18,C12U G30A A45G A77U,0.07
19,C12U A15U U43C U58C U69A A77U,0.02
20,C12U U25C U41A U51A U58A U69C U72C,0.06
21,C12U A15G A35G U43A U67C,0.38
22,C12U A57G U76C,1.27
23,C12U G16U U60C U69A,0.13
24,C12U U26C U51A U80A,1.04

row,Variant,self-cleavage
1,C12G C40A U41C A45U G70A U74C U76A,0.08
2,C12G G16A U25A U31C U41C U49C U80C,0.05
3,C12U A35U A64G,0.72
4,C12G U48C U51A,0.11
5,C12G U41A C59U,0.09
6,C12U A56U A64C,0.16
7,C12U U43G U67A U72A,0.06
8,C12U A20C A35C A57G U60C,0.05
9,C12U A15C U60C U67C,0.46
10,C12U U26C C40G,0.1
11,C12U A15U U48A,0.53
12,C12U U25C A28C U41C U43A U54A,0.11
13,C12U A15G C39G U41A A56U C62A U69G,0.04
14,C12U U43C U54C U67A,0.13
15,C12U A56G U69A U72C,0.69
16,C12U A18U U41A U43C G55A U69G,0.05
17,C12U A13G A35G U43C U67C U76C,0.08
18,C12U U26A A45U U54A,0.82
19,C12G U43A U51A C81A,1.21
20,C12U C14U U43A,1.15
21,C12U U31C A64G A77G,0.7
22,C12U U41A A75U U78C,0.1
23,C12U C14A U41C U51C U72C,1.29
24,C12U G46A U78C,0.27

row,Variant,self-cleavage
1,C12U A57G U69C,1.03
2,C12U A15G U48C U80C,0.33
3,C12U A20G U26C U72A,0.35
4,C12U G30A U31C A35U U69C,0.1
5,C12G A21G U67C U72A A77G U78C,0.1
6,C12U G16U U76A,1
7,C12G A18U A28G A65C A77G C81U,0.04
8,C12U A21G U43A U51C,1.04
9,C12U U25C C50U,0.29
10,C12U A13G U78C,0.91
11,C12G U26A C32G A57G U69A,0.05
12,C12U A18G A35G,0.33
13,C12G A20G U58C,0.25
14,C12U A13G G19U U43A A56G A57U U66A,0.04
15,C12U U25C U48C U69C U72C A75G,0.04
16,C12U A35G A45G U60C U66C U72A A77C,0.43
17,C12U A20G C32A C40U C44G A45G U60C,0.06
18,C12U U31C U67A U72C,0.63
19,C12U A15U U31C U41A,0.21
20,C12G C17A G33C C40A U51C U54A A77G,0.27
21,C12U A15U A20G U26A U72A G73A,1.19
22,C12U A21G C40A U67C,0.38
23,C12U A13G U31A A45C U49C,0.22
24,C12U C39A G70A,0.11

row,Variant,self-cleavage
1,C12U A28G U54C U66C U67C,0.07
2,C12U U25A G53A U67A,0.1
3,C12U U25C U31A U54G,0.07
4,C12G U41A U43A U54C A57G U60C U76C,0.08
5,C12U U26C U58G A77U,0.27
6,C12G U26C U31C A57G,0.21
7,C12U U26C A47U,0.18
8,C12U A21G U51A C79G,1.28
9,C12G A28G U49A,0.16
10,C12U A18G U60A A64G,0.18
11,C12U A28G A57G U58C U69C U78C U80A,0.09
12,C12U A21G A64G U80C,0.75
13,C12U U25C A35G U41G A45G U54A,0.1
14,C12U A20U A56G U58A,0.11
15,C12U U31C A35G U43C A57G U66C U69C,0.09
16,C12U U41C U66G,1.11
17,C12U U48A A57G,0.73
18,C12U U25C U26C C40U A47U U49C A56G,0.05
19,C12U U25C U48C U54C U60C U72C,0.06
20,C12U A45G A47U,0.61
21,C12U A18U U78A,0.74
22,C12U A64G U80C,1.15
23,C12U C59G U60C A75G,0.33
24,C12U G24A U25C A28G U49C U76A A77G,0.05

row,Variant,self-cleavage
1,C12U A15G U41A A45U A56G,0.03
2,C12G U54A A75G,0.22
3,C12U U25C U69A,0.14
4,C12U C62U U69C,0.39
5,C12U A20G U60C,0.56
6,C12U A15G G19C G61U U66C,0.13
7,C12U A35U C79U,1.23
8,C12U U49C U72A,0.69
9,C12U U26C U31C A45G U60C U74A,0.47
10,C12U A47G U72C U80C,1.31
11,C12U A13G A28G U31C A47C U51A U76A,0.06
12,C12U A18U A56G A65G U67C U76C,0.21
13,C12U A15C A56G,1.21
14,C12U A21G C23U C38U A56G,0.24
15,C12U C17U G55A A57U U78C,0.31
16,C12U U48C U54C U69C G70A U76C,0.13
17,C12U A28U U72C,0.97
18,C12G U25C A64G,0.28
19,C12U U25C U31A U51A U66C,0.22
20,C12U U26C A28G U60A U67A,0.05
21,C12G C27A U67C U74C,0.09
22,C12G A45U A56C,0.08
23,C12U C40G U43C U80A,0.2

# — the RNAGym collection of RNA variant scans (doi:10.1093/nar/gkz1192)
